Reference: the supplement of paper PMC12645437, “Orthogonal IMiD-Degron Pairs Induce Selective Protein Degradation in Cells” (ACS Chemical Biology, 2025)
The list shows a part of the results.

B1: Q9UKT9 (peptide)
chain: LLCPICGFICTQKGNLLRHIKL
B2: Q9UKT9 (peptide)
chain: FSCDICGAVFTQKGNLLRHIKL
B3: Q9UKT9 (peptide)
chain: FSCNVCGATFTQKGNLLRHIKL
B4: Q9UKT9 (peptide)
chain: FGCPICGRNFTQKGNLLRHIKL
B5: Q9UKT9 (peptide)
chain: FMCPQCGAHFTQKGNLLRHIKL
B6: Q9UKT9 (peptide)
chain: FMCNICGAKFTQKGNLLRHIKL
B7: Q9UKT9 (peptide)
chain: FECPVCGATFTQKGNLLRHIKL
B8: Q9UKT9 (peptide)
chain: FECPVCGAYFTQKGNLLRHIKL
B9: Q9UKT9 (peptide)
chain: FDCNQCGRDFTQKGNLLRHIKL
B10: Q9UKT9 (peptide)
chain: FDCEQCGAKFTQKGNLLRHIKL
B11: Q9UKT9 (peptide)
chain: FNCNQCGAIFTQKGNLLRHIKL
B12: Q9UKT9 (peptide)
chain: FRCEVCGAMFTQKGNLLRHIKL
B13: Q9UKT9 (peptide)
chain: LECNQCGFTCTQKGNLLRHIKL
B14: Q9UKT9 (peptide)
chain: FMCEICGAPFTQKGNLLRHIKL

biological target: no compound (DMSO); test: log2 fold change of degron read counts, EGFP-low vs EGFP+ sorted cells; higher = lower degron-EGFP level without compound (poor expression or instability); details: compound: DMSO control; 18 h
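Further: jurkat cells carrying a lentiviral library of mutant zinc finger degrons fused to EGFP plus mCherry, mCherry+ cells FACS sorted, degron abundance counted by next-generation sequencing.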

Q: Which “log2 fold change of degron read counts” value does the source give for B1 here?
A: 1.58

Q: For B2, which “log2 fold change of degron read counts” value is on record?
A: 0.74

Q: B3 was tested. Which “log2 fold change of degron read counts” value did it give?
A: -1.03

Q: For B4, which “log2 fold change of degron read counts” value is on record?
A: 0.26

Q: With B5 as the sequence, how does the “log2 fold change of degron read counts” value read?
A: -0.206

Q: For B6, which “log2 fold change of degron read counts” value is on record?
A: -0.988

Q: With B7 as the sequence, how does the “log2 fold change of degron read counts” value read?
A: -0.491

Q: For B8, which “log2 fold change of degron read counts” value is on record?
A: -1.12

Q: B9 was tested. Which “log2 fold change of degron read counts” value did it give?
A: 0.336

Q: For B10, which “log2 fold change of degron read counts” value is on record?
A: -1.26

Q: B11 was tested. Which “log2 fold change of degron read counts” value did it give?
A: -0.217

Q: Which “log2 fold change of degron read counts” value does the source give for B12 here?
A: -1.29

Q: Which “log2 fold change of degron read counts” value does the source give for B13 here?
A: -0.86

Q: How did the “log2 fold change of degron read counts” value turn out when B14 was run?
A: -0.39
